Reference: the RNAGym collection of RNA variant scans (doi:10.7554/elife.90254)
Read counts are not given, so values of variants with three or more changes are uncertain.

B1: OR4K15 (parent)
chain: GUUAACGGUCAUAGGCCAUGGAAACUAGGAGCACCAUUUCGCUGCCAGUGAAGAAAUGAACAAAGAAAAUCUGGGCCAGGCAGGCAUCAAAAGAAAUAGUCUUGCGCUCAACCAGAAAGUCUGUAAUCAUUUUAAGGGUA

Variants of: B1
Test: self-cleavage, relative activity (ratio to wild type); higher = more cleavage; in vitro, sequencing; the parent is a self-cleaving ribozyme

Variant	self-cleavage
A60G A82U U124A	0.12
A5G A13G U37C C45U A51G A52G U120C	1.21
U26G A51U A59G	0.34
U3A U9C A13G A51U	1.05
G20U A33G C40A A126G	1.33
A86U A89C A90G U103A A111G U127C	0
G29A A55G A62C	1.43
A36G A69G A90G	1.81
A22U A55G U57A A59U U72A U87C	0.23
U12A A23G U37C A47U U132C	0.29
U2C A51G A56G U72A A94G U108A A116G	0.02
A23U A62G A86G	1.26
G7U A69G U102C	2.39
A64U A94G U102C	1.86
A4G A59U A69G U132C	0.8
G14A A33G U131C	0.27
A52G U100C C101U G137U	2.59
A56G G80A A82G	0.12
A27G U102C U127A	1.28
A23G A36G A92U A111G	0.02
U37C A86G A90G U100A U132C	0.21

Variant	self-cleavage
U37C G79A A90G	0.03
A23G A33G U43C A55G A59G C121U	1.15
A64G A66G A69G A92G	0.72
U87A U102A A117G A126G U133C	0.96
G58A U72C U103C	0.09
A24G A60G A89G C105U U131C	0.14
A23U A27G U131C G137A	0.78
G75A A96G U108C A114C	0
A52G U70C A89G U108C A117G	0
G99A U100C A118G	1.87
A5G U19C U57C U122C	1
A55G U70C G106A A116G U120C A125G	0.01
G31A A56G A78U A82U	0.08
A5G U57C A118G A135G	0.77
A56U U72G U103C U108G	0.02
U122C A126U U131C	0.92
A90G A114G A134G	0.07
A51G A69U A78U A134G	0.13
A23U U100C A114G	1.4
A18U A52G A55G A92G A110G C128U	0.08
A68G A78G A116G	0.11

Variant	self-cleavage
A11G A118G U122C	0.44
G7C U12G A62U	1.63
U43C U103C A117G	1.84
A30G A47U A95G	1.2
U26C U38C U49A A96G	1.28
A63G A69U U102C	1.59
A4G U26C U103A U108C A110G	0.04
U9C A22U A60C U100C	1.68
A22G C46U A86G A90G C113U	0.01
A62G A69G A90G A110G	0.12
C77U U87C A92G A118G U132C	2.37
A30G A90G A116U	0.5
A30G A56G A94G	1.47
A24G A90G U103C	0.47
U19C U37C A96G A135G	1.35
A22G A68G A69G A78U	0.31
A18G A82G A91U A116G	0.22
A4G G74A A78U G93U	0.21
A59G A90G U103C U130C	0.47
U49C A111C U124A	0
U2C U100C U102C U127C	0.49

Variant	self-cleavage
A94G A126G A129C	0.19
U3C A68G A86G A96G	0.92
A18G A60G A125G	0.44
A11G U57C A92G	0.91
A18U A47U U87A	0.37
A51U G115A A116U U124C	0.01
U9C A52G A63G U72C	0.44
C10U A55G A60G A63G A96G	1.44
A24G G28A A36C U43C U131C	1.7
A23G G74A A86G A91G A95G	0.18
A4G U38A A67U A78U A86G A96C U97C	0.14
A67G A78C A116G	0.07
U12C A129G U131C	0.7
C35U A52U A96G A118C	0.73
U26C A67G A69G A82G A129G	0.57
A56G A60G A95G U122C	0.44
U43A A86U A111G A116G	0
U12C U19C A30G A69G A111G	0.09
U12C C88A A96G U103A	0.5
U2A A69G U139C	0.92
